# Measurements: the supplement of paper PMC12217912
# Some of the results follow. The full chains were built here from the parent and the listed change. Inactive controls read about 0.05.
# B1: TEV protease; numbered along this chain (parent)
# chain: MGESLFKGPRDYNPISSSICHLTNESDGHTTSLYGIGFGPFIITNKHLFRRNNGTLVVQSLHGVFKVKDTTTLQQHLVDGRDMIIIRMPKDFPPFPQKLKFREPQREERICLVTTNFQTKSMSSMVSDTSCTFPSGDGIFWKHWIQTKDGQCGSPLVSTRDGFIVGIHSASNFTNTNNYFTSVPKNFMELLTNQEAQQWVSGWRLNADSVLWGGHKVFMVKPEEPFQPVKEATQL
# Variants of: B1
# Assay: raw area under fraction-flipped curve 0-4 h after induction (AUC4h, not background-subtracted), DNA-recorder readout of cleavage of the substrate (dimensionless); higher = more cleavage of the substrate by the protease variant
# Settings: temperature: 34 °C; time window: 0-4 h after rhamnose induction
# Protocol: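 In vivo DNA recorder in E. coli TOP10(DE3) ΔrhaA at 34 °C. Each TEVp single-site mutant (parent TEVp 0) is paired with a single-site variant of the 7-mer TEVs (canonical ENLYFQ|S). The substrate sits between flexible linkers in a Bxb1-sfGFP-TEVs-SsrA fusion, so cleavage stabilises Bxb1 and speeds flipping of a recombination array, read by NGS. The value is the raw area under the fraction-flipped curve over 0-4 h after rhamnose induction (AUC4h), with ≥20 reads per time point. It is not background-subtracted; inactive controls average about 0.047.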
# 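Further: Bxb1 expression induced with 0.2% (w/v) L-rhamnose at OD600 near 0.5, cultures sampled hourly, flipped fraction per protease–substrate barcode pair counted by paired-end Illumina sequencing.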
Variant,area with substrate ENLYFAS,area with substrate ENLYFGS,area with substrate ENLYFHS,area with substrate ENLYFMS,area with substrate ENLYFNS,area with substrate ENLYFTS,area with substrate ENLYFVS,area with substrate ENLYFWS,area with substrate ENLYFCS,area with substrate ENLYFDS,area with substrate ENLYFES,area with substrate ENLYFFS,area with substrate ENLYFIS,area with substrate ENLYFKS,area with substrate ENLYFLS,area with substrate ENLYFPS,area with substrate ENLYFRS,area with substrate ENLYFSS,area with substrate ENLYFYS
R160S,0.0622,0.0527,0.053,0.065,0.0627,0.0556,0.063,0.101,,,,,,,,,,,
D161R,0.0538,,,0.052,0.067,0.0521,,0.0389,0.0585,0.0488,0.0563,0.0588,0.0472,0.0727,0.0572,0.0606,0.0455,0.0362,0.0434
D161Y,0.0566,0.049,0.0532,0.0457,0.0521,0.0549,,0.0456,,0.0515,,0.0577,0.0505,,,0.0489,,0.0515,0.059
G162A,0.0388,,,,0.0654,0.0689,0.0514,0.0461,0.0453,,0.0625,,0.0695,,,0.0382,,,
I164M,0.0519,0.0567,0.0528,0.0619,0.0578,0.0384,,0.0605,0.0563,,0.0564,0.0664,0.0536,0.0591,0.0559,0.0316,0.069,,0.0678
I164N,0.0526,0.0242,0.0494,0.0482,,0.0472,,,0.0571,0.0458,0.0584,,0.0354,0.0523,0.0696,0.0536,,,0.0511
V165G,0.0465,0.0443,0.0744,0.0567,0.0531,0.0504,0.0527,0.0561,0.0532,0.0437,0.0771,0.0599,0.0487,0.0693,,0.045,0.056,,
G166I,0.0523,,,0.0528,0.0565,,,0.0429,0.053,,0.0498,0.0573,0.0553,0.0806,0.053,0.0634,0.0683,0.0535,0.0519
G166L,0.0286,,0.0406,,,,0.0618,,,,,0.0639,0.04,,,,0.0484,,
I167S,0.0541,0.0539,0.0458,,0.0571,0.0551,0.0288,0.0577,0.0223,0.0707,,0.071,0.0589,0.0575,,0.047,0.0594,0.0531,
I167Y,0.0521,0.0639,,0.0718,0.0661,,0.0638,,0.0817,0.0732,0.0555,0.0671,0.0573,0.057,,,0.0649,,
S171V,0.0608,0.0626,,0.0593,0.0582,0.0513,0.0656,0.0454,0.0515,,0.0625,,0.0631,,0.062,0.0592,0.0553,0.0626,
N175R,0.0572,0.0711,,0.0535,0.0581,0.0658,0.0459,0.0601,,0.066,,0.0744,0.0415,0.0526,0.0644,0.0515,,,0.0548
T176A,0.0517,,0.0626,,,0.0566,0.0545,0.0659,0.0504,,0.0475,0.063,,0.0697,,,,,0.0612
F180G,0.02,,0.0657,0.0436,0.0493,0.0525,0.0438,0.0686,0.0441,,,0.0688,,0.0541,,,0.0583,0.0845,
T181P,0.0472,,,0.0579,,0.0648,0.0775,0.0522,0.0631,,0.0482,0.0436,0.0623,0.0557,0.0517,0.0465,,0.0359,0.053
S182K,0.0522,0.0598,0.0598,0.0671,,0.0523,0.0481,0.0634,0.0472,0.0545,0.0582,0.025,0.054,0.0599,0.0564,0.0549,,,
V183L,0.0621,,,,0.0636,,0.091,0.0646,0.0545,0.0561,0.0555,0.0728,0.061,0.0653,,,,,0.0475
P184M,0.0543,0.0573,0.0497,0.0632,0.0542,0.0578,0.0474,0.0546,0.0651,,0.0568,0.0596,0.0526,0.0402,0.054,0.0512,0.0591,0.0556,0.0442
M188W,0.0672,0.0582,0.059,0.0692,0.0595,0.0579,0.0741,,0.059,0.057,0.0711,0.0621,0.0562,0.0706,0.0571,0.0574,,0.0556,0.0574
E189M,0.0516,0.0525,0.0729,0.0643,0.0723,0.0606,0.0528,,0.0719,0.0652,,0.0619,0.059,0.0682,0.0683,0.049,0.0587,0.0709,0.0635
L190H,0.066,,0.0521,0.0686,0.0471,0.0609,0.0622,,,0.0573,0.061,0.0652,0.0443,,0.0612,0.0646,0.055,0.0513,
L191D,0.0644,,,,0.0571,0.0538,0.0679,0.0414,,,,0.0875,0.0543,,0.0634,0.049,0.0515,,0.0475
L191G,0.0531,,0.0602,0.0562,0.0757,0.0486,,0.0632,,0.0538,0.0557,,0.0506,,,0.0225,0.0454,0.0447,0.042
T192A,0.0571,0.0586,,0.0644,,0.0699,,,0.0613,0.0377,0.0549,,,0.0513,,0.0726,0.0581,0.0487,0.0672
T192F,0.047,0.0572,,0.0689,0.0566,0.0663,,0.0683,0.0671,0.0492,0.0589,0.0549,0.0609,0.0546,,0.057,,0.0542,
